In PubChem BioAssay (NCATS):
This list was built around the results that the source calls inconclusive (neither active nor inactive); the mix of calls is not that of the screen. A potency beside an inconclusive call is a rough fit, not a confirmed value. Active and inactive are the calls of the source. Calls come from the whole dose curve; as a rule, active = well fitted cell-killing curve with a large enough effect; inconclusive = small, poorly fitted or top-dose-only effect, or effect the other way; inactive = no such curve, though single readings can be large or run the other way.

Tests used:
[1] = Viability qHTS for spleen associated tyrosine kinase inhibitor (SYKi) naive MV4-11 cells (AID 1963823); conditions: MV4-11 AML viability, CellTiter-Glo luminescence, 72 h; viability (% of control): at 45 µM (top of the series); note: nearly all actives have a fitted effect of over 40% in size
In short: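 CellTiter-Glo luminescence, 10 min room-temperature incubation, gave viability. Cells: naive MV4-11 (500/well), treated 72 hr at 37 C, 5% CO2.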

[2] = Viability qHTS for spleen associated tyrosine kinase inhibitor (SYKi) drug resistant MV4-11 cells (AID 1963824); note: nearly all actives have a fitted effect of over 35% in size
In short: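 SYK inhibitor-resistant MV4-11 AML cells, 500 per well, added to predispensed compounds and incubated 72 hr at 37 C, 5% CO2. Viability measured by CellTiter-Glo luminescence after 10 min at room temperature.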
Potency is the fitted concentration of half-maximal effect; tags give direction and shape of the fitted curve.

Row | Compound | Potency [1] | Potency [2] | viability (% of control) [1] | viability, % of control [2]
1 | COC(=O)C1=CO[C@@H](O[C@@H]2O[C@H](CO)[C@@H](O)[C@H](O)[C@H]2O)[C@@H]2[C@@H](C)[C@@H](O)C(O)[C@H]12 (some centres undefined) | inconclusive: 3170 nM [cytotoxic, single point] | inactive | – | –
2 | COc1cc2c(c(OC)c1CC=C(C)C)C[C@H](c1ccc(O)c(CC=C(C)C)c1O)CO2 | inconclusive: 6320 nM [cytotoxic, partial curve] | inconclusive: 10000 nM [cytotoxic, partial curve] | – | –
3 | CCc1cc(C(N)=O)ccc1-n1nc(C(C)C)c2c(-n3cnc(-c4cnn(C)c4)c3)ccnc21 | active: 372 nM | active: 590 nM | – | –
4 | CC(=O)O[C@H]1CC(C)(C)CC2[C@@]13[C@H](O)C[C@]1(C)[C@@]2(CCC2[C@@]4(C)CC[C@H](O[C@@H]5OC[C@H](O[C@@H]6O[C@H](CO)[C@@H](O)[C@H](O)[C@H]6O[C@@H]6OC[C@@H](O)[C@H](O)[C@H]6O)[C@H](O)[C@H]5O[C@@H]5O[C@H](CO)[C@@H](O)[C@H](O)[C@H]5O)C(C)(C)C4CC[C@]21C)O[C@@H]3O (some centres undefined) | active: 873 nM | active: 778 nM | – | –
5 | COCc1c(O)c(C(=O)O)c(C)c2c1OC(=O)c1c(C)cc(O)c(CO)c1O2 | inconclusive: 5080 nM [cytotoxic, partial curve, poor fit] | inconclusive: 10100 nM [cytotoxic, partial curve, poor fit] | – | –
6 | C[C@@H](NC(=O)c1cc(C(=O)N[C@@H](Cc2ccccc2)[C@H](O)CNC2CC2)cc(N(C)S(C)(=O)=O)c1)c1ccccc1 | inconclusive: 18400 nM [cytotoxic, single point] | inconclusive: 14600 nM [cytotoxic, partial curve] | – | –
7 | CC1CC(OC(=O)C(O)c2ccccc2)CC(C)(C)N1C (centres undefined) | inconclusive: 1.3 nM [rising, full curve, poor fit] | inconclusive: 0.8 nM | – | –
8 | C=C1C(=O)O[C@@H]2/C=C(\C)C(=O)/C=C/[C@](C)(O)C[C@@H](OC(=O)C(C)C)[C@@H]12 | inconclusive: 180 nM [cytotoxic, full curve] | inconclusive: 80.5 nM [cytotoxic, full curve] | – | –
9 | CC1C(=O)CC2C3CCC(C(=O)O)C12CC3(C)CO (centres undefined) | inactive | inconclusive: 2910 nM [cytotoxic, full curve, poor fit] | – | –
10 | O=C([O-])C[O-].[Pt+2] | inactive | inactive | – | –
11 | NC12CC3CC(CC(C3)C1)C2 | inactive | inactive | – | –
12 | OC1CCC(Oc2cccc3cnc(Nc4ccc5nc[nH]c5c4)nc23)CC1 (centres undefined) | inconclusive: 26.3 nM [cytotoxic, full curve] | inconclusive: 83.3 nM [cytotoxic, full curve] | – | –
13 | COc1cc(C)c(C(=O)NC2C(C)OC(OC3CCC(C)C4C3C=C(C)C3/C(C)=C\CC/C(C)=C/C5(C)C=C(C(=O)O)C(C)CC56OC(=O)/C(=C(\O)C34C)C6=O)C(O)C2(C)O)c(O)c1 (centres undefined) | – | – | inactive: 82.6% [at 9.25 µM] | inactive: 77% [at 9.25 µM]
14 | C[C@H]1CC[C@@]2(OC1)O[C@H]1CC3[C@@H]4CC[C@@H]5C[C@@H](O[C@@H]6O[C@H](CO)[C@@H](O[C@@H]7O[C@H](CO[C@@H]8OC[C@@H](O)[C@H](O)[C@H]8O)[C@@H](O[C@@H]8O[C@H](CO)[C@H](O)[C@H](O)[C@H]8O)[C@H](O)[C@H]7O)[C@H](O)[C@H]6O)CC[C@]5(C)C4CC[C@]3(C)[C@H]1[C@@H]2C (some centres undefined) | inconclusive: 6930 nM [cytotoxic, single point] | inconclusive: 5510 nM [cytotoxic, single point] | – | –
15 | CCOC(=O)c1ccc(NC(=O)CN2CCCCC2)cc1 | inactive | inconclusive: 29100 nM [cytotoxic, single point] | – | –
16 | COc1ccc([C@H]2CNC(=O)C2)cc1OC1CCCC1 | inconclusive: 58 nM [cytotoxic, full curve, poor fit] | inactive | – | –
17 | C=C1CC[C@@H]2[C@@](C)(CO[C@@H]3O[C@H](CO)[C@@H](O)[C@H](O)[C@H]3O)[C@H](O)CC[C@@]2(C)[C@@H]1CC/C(C)=C/CO[C@@H]1O[C@H](CO)[C@@H](O)[C@H](O)[C@H]1O | inconclusive: 1370 nM [cytotoxic, full curve, poor fit] | inactive | – | –
